Source: PubChem BioAssay AID686979 (National Center for Advancing Translational Sciences (NCATS), 2013)
Several values for one entry are separate records, joined by “and”; a condition that tells them apart may be missing. Equal values may be shown once. Hit rate of the full screen: of about 420,000 compounds, about 50,000 (12%) were called active. The shares of active, inactive and inconclusive entries below differ from those in the screen. Calls come from the whole dose curve; as a rule, active = well fitted inhibition curve with a large enough effect; inconclusive = small, poorly fitted or top-dose-only effect; inactive = flat fitted curve, though single readings scatter. Where the call is inconclusive, the potency comes from a doubtful curve fit.

Experiment: qHTS for Inhibitors of human tyrosyl-DNA phosphodiesterase 1 (TDP1): qHTS in cells in presence of CPT; note: nearly all actives have a fitted effect of over 55% in size
Conditions: chicken DT40 Tdp1-/-;hTDP1 cells + 20 nM CPT, ATP luminescence, 48 h; series mostly up to 46.2 µM
Outline: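 Chicken DT40 Tdp1-/- cells complemented with human TDP1, 400 cells/well, exposed to compounds plus 20 nM camptothecin for at least 48 h at 37 C; viability read as ATP content by CellTiter-Glo luminescence.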
Potency is the fitted concentration of half-maximal effect; tags give direction and shape of the fitted curve.

Row | SMILES | Potency
1 | CN(C)C(CNC(=O)c1cc(-c2ccco2)nc2ccccc12)c1ccccc1 (centres undefined) | inactive
2 | O=C(CC12CC3CC(CC(C3)C1)C2)NCc1ccncc1 | inconclusive: 29.1 µM [inhibitor, single point]
3 | CCOc1ccccc1CN1CCc2nc(N3CCN(c4ccccc4F)CC3)ncc2C1 | active: 16.4 µM
4 | CCC(=O)Nc1ccc(N2CCN(C(=O)c3ccccc3C)CC2)cc1 | inactive
5 | Cc1ccc(S(=O)(=O)NC(=O)NCCc2ccccc2)cc1 | inactive
6 | CCCOc1ccc(CN(C(=O)c2cc(=O)c3ccc(C)cc3o2)C2CCS(=O)(=O)C2)cc1 (centres undefined) | inconclusive: 29.1 µM [inhibitor, single point]
7 | COc1ccc(Cl)cc1NC(=O)CCS(=O)(=O)c1ccc(C)cc1 | inactive
8 | COc1ccc(N2CCN(S(=O)(=O)CCNC(=O)C3CC(=O)N(c4ccccc4)C3)CC2)cc1 (centres undefined) | inactive and inconclusive: 4.61 µM [inhibitor, single point]
9 | O=C(CSc1nc2[nH]ncc2c(=O)[nH]1)N1CCCCC1 | inactive
10 | CN(C)CC[C@@H](c1ccc(Br)cc1)c1ccccn1 | inconclusive: 18.8 µM [inhibitor, single point]
11 | Cc1cc(Cl)ccc1OCC(=O)NNC(=O)c1cnccn1 | active: 10.3 µM
12 | O=C(Nc1ccc(Cc2ccncc2)cc1)c1ccc(Br)o1 | inactive
13 | O=C(CN1CCCC1)Nc1ccc2c(c1)CCC2 | inactive
14 | Cc1nc2sc3c(O)cc(=O)[nH]c3c2c(C)c1C | inconclusive: 16.4 µM [inhibitor, single point]
15 | NC(=S)N/N=C/c1ccc(-c2ccccc2)o1 | inconclusive: 32.6 µM [inhibitor, single point]
16 | COC(=O)c1ccc(-c2csc(NC(=O)c3c(C)noc3C)n2)cc1 | active: 16.4 µM
17 | COc1ccc(-c2c(C(C)=O)c(C)n(C)c2C)cc1 | inconclusive: 29.1 µM [inhibitor, single point]
18 | COc1cccc(C(=O)CC2(O)C(=O)Nc3ccc(Cl)cc32)c1 (centres undefined) | inconclusive: 23.1 µM [inhibitor, single point]
19 | O=C(/C=C/c1ccc2ccccc2n1)c1cc(Cl)ccc1O | inconclusive: 20.6 µM [inhibitor, single point]
20 | COc1cc(C)ccc1OCCSc1nc(-c2cccc(C)c2)nc2cc(=O)[nH]n12 | active: 16.4 µM
21 | CC(C)c1ccc(C2OCC(C)([N+](=O)[O-])CO2)cc1 (centres undefined) | inactive
22 | CC1=CC(C)(C)[N+](C)(C)c2ccc(C)cc21 | inconclusive: 29.1 µM [inhibitor, single point]
23 | CCOCCCNC(=S)N(CCN(CC)CC)Cc1cc2cc3c(cc2[nH]c1=O)OCCO3 | inconclusive: 29.1 µM [inhibitor, single point]
24 | Cc1cc(C)c(S(=O)(=O)N2CCN(C(=O)c3ccccc3OCc3c(C)noc3C)CC2)c(C)c1 | inconclusive: 29.1 µM [inhibitor, single point]
25 | COc1ccc(C)cc1NC(=O)COCc1cc(-c2cccs2)on1 | inconclusive: 18.4 µM [inhibitor, single point]

Row | SMILES | Potency
26 | Cc1ccc(C)c(S(=O)(=O)Nc2ccc(C(N)=O)cc2)c1 | inconclusive: 11.6 µM [inhibitor, partial curve, poor fit]
27 | CCc1nc2ccc(C(=O)NCc3cccs3)cn2c1N(CC)CCOC | inconclusive: 23.1 µM [inhibitor, single point]
28 | CCN(C[C@H]1N[C@@](C)(C(=O)OC)[C@H]2C(=O)N(Cc3ccccc3)C(=O)[C@@H]12)C(=O)c1ccccc1 | inactive
29 | O=C(CCS(=O)(=O)c1cc(Br)cc2c1N(C(=O)C1CC1)CC2)N1CCN(c2ccc(F)cc2)CC1 | inconclusive: 18.4 µM [inhibitor, single point]
30 | COc1ccc(N2CC(C)(C)[C@H](CC(=O)Nc3ccccc3)C2=O)cc1 | inactive
31 | O=S(=O)(c1ccccc1)c1cnn2c(C(F)(F)F)cc(-c3ccccc3)nc12 | inconclusive: 29.1 µM [inhibitor, single point]
32 | O=C1NC(=Nc2ccccc2)S/C1=C\c1cccn1-c1ccccc1 | active: 9.2 µM
33 | Cc1cc(/C=C2/C(=O)N(C)C(=S)N2C)ccc1N1CCCC1 | inconclusive: 25.9 µM [inhibitor, single point]
34 | Cc1c(C(=O)N2CCCCC2)nn(-c2ccc(Cl)cc2)c(=O)c1C#N | inactive
35 | CC(=O)c1c(C)[nH]c(C(=O)COC(=O)CCOc2ccc(C)cc2)c1C | inconclusive: 23.1 µM [inhibitor, single point]
36 | CN(Cc1ccno1)C(=O)CC1C(=O)NCCN1CC(c1ccccc1)c1ccccc1 (centres undefined) | inactive
37 | COc1ccc(-n2c(SCCNCCO)nc3sc4c(c3c2=O)CCCC4)cc1 | inconclusive: 29.1 µM [inhibitor, single point]
38 | CN(Cc1ccccc1)C(=O)C1CCCN(Cc2ccc(Cl)cc2)C1 (centres undefined) | inactive
39 | COc1cc(/C=C/C(=O)OCC(=O)Nc2c(C)n(C)n(-c3ccccc3)c2=O)ccc1O | inconclusive: 6.51 µM [inhibitor, single point]
40 | COc1ccccc1/C=C/C(=O)Nc1cccnc1 | inactive
41 | CC(C)Oc1ccc(C(=O)N(CN2CCCC2=O)c2ccc(F)cc2)cc1 | inconclusive: 29.1 µM [inhibitor, single point]
42 | CSCC[C@H](NC(=O)OC(C)(C)C)C(=O)N/N=C/c1cccc2nccnc12 | inconclusive: 25.9 µM [inhibitor, single point]
43 | CN1CCN(C(=O)CSc2nc(-c3cccs3)cc(-c3cccs3)c2C#N)CC1 | inconclusive: 29.1 µM [inhibitor, single point]
44 | COc1ccc(CCNC(=O)COc2ccc(S(=O)(=O)NCC(C)C)cc2Cl)cc1OC | inconclusive: 29.1 µM [inhibitor, single point]
45 | O=S(=O)(/N=C(\Sc1ccccc1)c1ccccc1)c1ccc(Cl)cc1 | active: 12.6 µM
46 | COc1ccc(CCNC(=O)CCCn2c(=O)c3ccccc3n(Cc3ccc(C)cc3)c2=O)cc1OC | active: 23.1 µM
47 | CCn1nnc(NC(=O)c2sc3ccccc3c2Cl)n1 | inactive
48 | COc1ccc(C(=O)NC(=C(Cl)Cl)S(=O)(=O)c2ccc(C)cc2)cc1 | inconclusive: 20.6 µM [inhibitor, single point]
49 | COc1cc(C(=O)Oc2ccccc2/C=N/NC(=O)c2ccc(C)c(Cl)c2)cc(OC)c1OC | active: 1.16 µM
50 | CCN(CC)C(=O)CSC1=Nc2ccccc2C2=NC(Cc3c[nH]c4ccccc34)C(=O)N12 (centres undefined) | inactive

Row | SMILES | Potency
51 | CCOC(=O)C1(C)CCCN(C(=O)c2cccnc2)C1 (centres undefined) | inactive
52 | C=CCOc1c(Cl)cc(CNc2ccc(N(C)C)cc2)cc1OC | active: 6.51 µM
53 | COc1ccccc1OCCn1c(COc2cc(C)ccc2C)nc2ccccc21 | inconclusive: 25.9 µM [inhibitor, single point]
54 | CCOC(=O)c1ccc2[nH]c3c(c2c1)CCCC3NC=O (centres undefined) | inactive
55 | Cc1nn2c(C)c(C(=O)N3CCN(c4ccccc4)CC3)cnc2c1-c1ccccc1 | inconclusive: 18.4 µM [inhibitor, single point]
56 | O=[S@]1Oc2ccccc2-c2ccccc21 | inconclusive: 5.8 µM [inhibitor, full curve]
57 | Oc1c(Br)cc(Br)cc1/C=N/c1nccs1 | inconclusive: 16.4 µM [inhibitor, single point]
58 | O=C(C=Cc1cccs1)c1cccs1 | inconclusive: 29.1 µM [inhibitor, single point]
59 | CCOc1ccccc1Nc1sc(C(=O)c2ccccc2)c(N)c1C(=O)NCCc1ccccc1 | inconclusive: 20.6 µM [inhibitor, single point]
60 | CC(=O)NC(C)c1nc2ccccc2n1Cc1ccccc1F (centres undefined) | inconclusive: 29.1 µM [inhibitor, single point]
61 | O=C(c1cc(Cl)cc(Cl)c1)N1CCOCC1 | inactive
62 | Cc1ccc(NC(=O)CN2CCCC2c2cccn2C)c(Br)c1 (centres undefined) | inconclusive: 18.4 µM [inhibitor, single point]
63 | O=C1CCCc2cc3c(cc21)CCCC3 | inactive
64 | CCC1C(=NO)C(CC)C(c2ccccc2)NC1c1ccccc1 (centres undefined) | inconclusive: 25.9 µM [inhibitor, single point]
65 | COc1ccc(OC)c(CN2CCN(C(=O)c3ccc(S(=O)(=O)N4CCCCCC4)cc3)CC2)c1 | inconclusive: 25.9 µM [inhibitor, single point]
66 | COc1cc(NC(=O)CSc2nc3ccccc3nc2Cc2ccccc2OC)cc(OC)c1 | inconclusive: 29.1 µM [inhibitor, single point]
67 | C=C1C(=O)CC2=C1[C@](Cc1ccc(F)cc1)(C(=O)OC)N(C(=O)c1ccccc1)C2 | active: 18.4 µM
68 | COc1cccc(CNC(=O)CNS(=O)(=O)c2ccc3nc(C)sc3c2)c1 | inconclusive: 25.9 µM [inhibitor, single point]
69 | COC(=O)c1c(N2C(=O)Nc3ccccc3N2O)sc(C)c1C | inactive
70 | CCN1CCN(c2ccc(S(=O)(=O)N3CCCCC3)cc2NC(=O)c2ccccc2)CC1 | inconclusive: 23.1 µM [inhibitor, single point]
71 | O=C(CCNC(=O)c1ccc(Cl)cc1)Nc1ccncc1 | inactive
72 | O=C(Cc1ccccc1)N/N=C/c1ccccn1 | inactive
73 | CCCNC(=O)C1(C)CCN(Cc2ccc(OC)c3ccccc23)C1 (centres undefined) | inconclusive: 29.1 µM [inhibitor, single point]
74 | CCC(=O)Nc1ccc(C)cc1-c1nc2ccccc2n(CC(=O)Nc2ccccc2Cl)c1=O | inconclusive: 16.4 µM [inhibitor, partial curve]
